Data published in the supplement of paper PMC11417369.
± gives the standard deviation of the averaged measurements. This is one part of the list.

What follows are sequences tested on PfAP2-I AP2 domain 3 (GST-tagged) (assay: gcPBM binding intensity (ln(normalized median fluorescence intensity)); higher = stronger DNA binding).
Procedure, shortened: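 Binding intensity is the highest Masliner-normalised natural-log median intensity over replicate spots in either probe orientation. To obtain it, GST-tagged P. falciparum DNA-binding domains made in E. coli were incubated for 1 h on an Agilent 4 × 180k array of primer-extended double-stranded 36-bp intergenic genomic probes plus negative controls. Detection used Alexa488 anti-GST antibody with scanning at 488 nm.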
In the case of “ATTTATTGACTATTTACACACATATTTATTATAATA [CACACA_site1624]”, the “gcPBM binding intensity (ln)” value is reported as 8.11 ± 0.49. “TATATTTTGTTCTGTTGTACTAAAAAAATCTTTATA [XGTACX_site8372]” was tested, and the “gcPBM binding intensity (ln)” value was 7.76 ± 0.38. For TTACTTTTAACAAATGTGCGCAGTTATCACACAGAC, the “gcPBM binding intensity (ln)” value was 8.67 ± 0.3. In the case of “ACAAAACAAAAAAACTCACACATATACGGCATGTCA [CACACA_site5608]”, the “gcPBM binding intensity (ln)” value is reported as 7.6 ± 0.64. In the case of “ATATATATATATATATGTACTAAGAATTCTTTAAAA [XGTACX_site8476]”, the “gcPBM binding intensity (ln)” value is reported as 9.55 ± 0.54. For “ATTTATTTATTTATATGTACATATTTAAAGAGTTCA [XGTACX_site7631]”, the “gcPBM binding intensity (ln)” value was 7.82 ± 0.55. For ATTATACATATATAAGTGCAATAATGTTTTTTCCTT, the “gcPBM binding intensity (ln)” value was 10.5 ± 0.57. For “TATACATATGAAAATACACACATACATACATATATA [CACACA_site8484]”, the “gcPBM binding intensity (ln)” value was 7.64 ± 0.3. In the case of “AAGGTATATATAACTACACACTTATATATAATCTAA [CACACA_site92]”, the “gcPBM binding intensity (ln)” value is reported as 7.53 ± 0.68. “ATACATATTTTACATTCACACAACAAATTTATATTT [CACACA_site4700]” was tested, and the “gcPBM binding intensity (ln)” value was 7.95 ± 0.67. In the case of “AGGAACAAAATATACTGTACTTTATTATTTTCAAAA [XGTACX_site4421]”, the “gcPBM binding intensity (ln)” value is reported as 7.74 ± 0.53. With “AACAGACAGAAACACACACACATATATATATATATA [CACACA_site3394]” the “gcPBM binding intensity (ln)” value was 9.24 ± 0.23. In the case of “TAATAAAATATGTACACACATACACCCATATATATA [CACACA_site1220]”, the “gcPBM binding intensity (ln)” value is reported as 8.24 ± 0.52. For “TGTAGTCTGGAGAAAAGTACATAGTATCTGGTAACC [XGTACX_site2025]”, the “gcPBM binding intensity (ln)” value was 7.77 ± 0.78. “ATTTTCCAAAATAATTGTACAGGAAAGAAATAATTA [XGTACX_site7424]” was tested, and the “gcPBM binding intensity (ln)” value was 7.88 ± 0.49. “ATATATTTTAATTGATGTACTTTTTTATGTTAATGA [XGTACX_site4316]” was tested, and the “gcPBM binding intensity (ln)” value was 8.005 ± 0.035. For “AATGTGTACGCACGCACACACAAAAAAATATATATA [CACACA_site2913]”, the “gcPBM binding intensity (ln)” value was 9.05 ± 0.3. In the case of “ATCTATATCTATAATACACACATAAATGGATATATA [CACACA_site6284]”, the “gcPBM binding intensity (ln)” value is reported as 7.81 ± 0.44. “CAAGCCCTTCTGCTTACACACAGTAATTATTGTGCA [CACACA_site7399]” was tested, and the “gcPBM binding intensity (ln)” value was 7.73 ± 0.79. With “TAAATATATTTATAAGCACACACTAATAAACCAACA [CACACA_site8022]” the “gcPBM binding intensity (ln)” value was 8.49 ± 0.33. “TTATGCAATTTGTATTGTACATTCATGATATTAATA [XGTACX_site5070]” was tested, and the “gcPBM binding intensity (ln)” value was 7.6 ± 0.51. In the case of “TAATAAATCAATAAATGTACATATATGTATAATTTC [XGTACX_site980]”, the “gcPBM binding intensity (ln)” value is reported as 7.75 ± 0.43. In the case of “AATTATAAAAAAAAAAAAAAAAAAAAAAACTAAATG [CACACA_negctrl_site1379]”, the “gcPBM binding intensity (ln)” value is reported as 7.51 ± 0.48. For “ATAATGTATTTATATATATATATATATTTTAATAAA [CACACA_negctrl_site460]”, the “gcPBM binding intensity (ln)” value was 7.57 ± 0.42. With “TTTAAAAATATATTCACACAGAAATAGTAAAAGTTA [CACACA_site4587]” the “gcPBM binding intensity (ln)” value was 7.67 ± 0.68. For “TATATATAGAAACACACACACACACCCAAGCGTAGC [CACACA_site63]”, the “gcPBM binding intensity (ln)” value was 8.06 ± 0.37. In the case of “ATTATAACTAAATAAATGATATATAATATTTTATTT [XGTACX_negctrl_site234]”, the “gcPBM binding intensity (ln)” value is reported as 7.39 ± 0.28. In the case of “ATTTATTAATTACCATGTATAAAAAATTATATAATA [CACACA_negctrl_site581]”, the “gcPBM binding intensity (ln)” value is reported as 7.46 ± 0.52. In the case of “GTCGTATAATTTTCAGTGCAATATTTGAATAAATGG [GTGCAC_site9404]”, the “gcPBM binding intensity (ln)” value is reported as 10.3 ± 0.23. For “AGCAACTCAATATATATAAGAATTGTAATATAATAT [GTGCAC_negctrl_site429]”, the “gcPBM binding intensity (ln)” value was 7.5 ± 0.49. “ATACAATACAAAAACACACACAAAAAAAGAAAAGGA [CACACA_site2156]” was tested, and the “gcPBM binding intensity (ln)” value was 7.98 ± 0.82. With “ATATATTTATATATTTGTACATATAATATCTTCTTT [XGTACX_site8504]” the “gcPBM binding intensity (ln)” value was 7.49 ± 0.49. For “GATTTATACAAATATGTACACACTAAATATATATTA [CACACA_site455]”, the “gcPBM binding intensity (ln)” value was 8.19 ± 0.28. “TTTATTTTATTTTCATGTACAAAAGGGGAATAATAA [XGTACX_site2704]” was tested, and the “gcPBM binding intensity (ln)” value was 8.28 ± 0.3. In the case of “ATATGTATGTATTTATTATTGTGCATTGTATTTATA [CACACA_negctrl_site664]”, the “gcPBM binding intensity (ln)” value is reported as 9.36 ± 0.38. In the case of “TATTTATCTTTACGCACACACTTGCATGTACAAAAG [CACACA_site4753]”, the “gcPBM binding intensity (ln)” value is reported as 9.47 ± 0.042. “AATACCCATATCTTCACACATACATAATAAATTATA [CACACA_site5367]” was tested, and the “gcPBM binding intensity (ln)” value was 7.92 ± 0.73. In the case of TTTATTTATGTGTGGGTGCATATACGTATGATGTAT, the “gcPBM binding intensity (ln)” value is reported as 11 ± 0.72. For “TTTGAATATTCATATGCACACAAATTAATATACATA [CACACA_site8040]”, the “gcPBM binding intensity (ln)” value was 8.63 ± 0.099. “GTATAATATTTTAATGCACACACACTAATAAAAAAA [CACACA_site8939]” was tested, and the “gcPBM binding intensity (ln)” value was 11.1 ± 0.76. “TTTGGATAAAAAATATGTACACACATATAGATATCT [XGTACX_site5660]” was tested, and the “gcPBM binding intensity (ln)” value was 7.71 ± 0.54. For “TTGACAGGAACGTTGGTGCACGTACTGTTTTTCTTT [GTGCAC_site9389]”, the “gcPBM binding intensity (ln)” value was 10.5 ± 0.12. In the case of “AAGTATAAATAAAGGCGTACACATGTAAATTATATT [XGTACX_site126]”, the “gcPBM binding intensity (ln)” value is reported as 8.29 ± 0.35. In the case of “AAAATAATTCATGTTGGTAATAAGACTCGAGGTGAA [CACACA_negctrl_site1054]”, the “gcPBM binding intensity (ln)” value is reported as 7.89 ± 0.56.
